# Results taken from PubChem BioAssay (NCATS).
# Where “and” joins values, the source holds several entries; their conditions need not be identical. Identical values can stand only once. The shares of active, inactive and inconclusive entries below differ from those in the screen. Where the call is inconclusive, the potency comes from a doubtful curve fit. Calls of active or inactive are those of the source. Unless noted, calls come from the whole dose curve; as a rule, active = well fitted curve in the direction sought with a large enough effect; inconclusive = small, poorly fitted or top-dose-only effect, or another doubt; inactive = no such curve, though single readings can be large; an effect the other way counts as inactive or inconclusive.
# Key:
# [1] = Confirmatory qHTS for small molecule stabilizers of the endoplasmic reticulum resident proteome: Secreted ER Calcium Modulated Protein (SERCaMP) assay (AID 1508628); conditions: SERCaMP secreted luciferase ER calcium/proteostasis reporter; series mostly up to 76.3 µM; note: nearly all actives have a fitted effect of over 40% in size
# In short: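 Reporter secretion upon ER calcium depletion (100 nM thapsigargin, 4 h, 37C) is measured as medium luminescence with coelenterazine, after 16 h compound pretreatment of SH-SY5Y-GLuc-SERCaMP cells; primary at three concentrations up to 38.3 uM, follow-up at 11 (up to 76.6 uM).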
# [2] = Primary qHTS for small molecule stabilizers of the endoplasmic reticulum resident proteome: Secreted ER Calcium Modulated Protein (SERCaMP) assay (AID 1508630); conditions: SH-SY5Y GLuc-SERCaMP (Gaussia luciferase released on ER calcium loss) secretion, thapsigargin, luminescence; series mostly up to 38.4 µM
# In short: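 The SH-SY5Y reporter protocol was run at 3 concentrations up to 38.3 uM (primary) or 11 concentrations (follow-up): 16 h compound, 100 nM thapsigargin for 4 h, then extracellular luciferase luminescence.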
# [3] = A High-Content qHTS Against Drug Library for the Identification of Small Molecules that Inhibit DYT1 Early Onset Primary Dystonia-Associated Cell Pathology (AID 1645839; calls by dose curve); conditions: HEK293 Flp-In EGFP-delE TorsinA, punctate imaging, 48 h; series mostly up to 46.1 µM
# In short: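 Induced EGFP-delE TorsinA cells are imaged after 48 h of compound treatment. Punctate fusion-protein distribution gives the %pathology value, while nuclei counts flag toxicity. Wild-type EGFP-hTOR1A cells define the normal pattern.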
# [4] = Cell Viability qHTS for small molecule stabilizers of the endoplasmic reticulum resident proteome (AID 1508629); conditions: cell viability counter-screen, 100 nM thapsigargin for final 4 h;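 note: compound exposure about 46 h in total before the viability read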
# [5] = target: Cytochrome P450 2C9 (Homo sapiens) (UniProt P11712); assay: Cytochrome P450 family 2 subfamily C member 9 (CYP2C9) small molecule antagonists: luciferase biochemical (cell-free) qHTS assay (AID 1645842; active = well fitted curve in the direction sought with a large enough effect in the repeat runs; inconclusive = weak or mixed curves; inactive = no such curve, though single readings can be large; an effect the other way counts as inactive or inconclusive; note: nearly all actives have a fitted effect of over 55% in size); conditions: P450-Glo CYP2C9 enzyme assay, luciferin luminescence; series mostly up to 57.4 µM
# UniProt P11712, sequence (P11712 whole entry, looked up): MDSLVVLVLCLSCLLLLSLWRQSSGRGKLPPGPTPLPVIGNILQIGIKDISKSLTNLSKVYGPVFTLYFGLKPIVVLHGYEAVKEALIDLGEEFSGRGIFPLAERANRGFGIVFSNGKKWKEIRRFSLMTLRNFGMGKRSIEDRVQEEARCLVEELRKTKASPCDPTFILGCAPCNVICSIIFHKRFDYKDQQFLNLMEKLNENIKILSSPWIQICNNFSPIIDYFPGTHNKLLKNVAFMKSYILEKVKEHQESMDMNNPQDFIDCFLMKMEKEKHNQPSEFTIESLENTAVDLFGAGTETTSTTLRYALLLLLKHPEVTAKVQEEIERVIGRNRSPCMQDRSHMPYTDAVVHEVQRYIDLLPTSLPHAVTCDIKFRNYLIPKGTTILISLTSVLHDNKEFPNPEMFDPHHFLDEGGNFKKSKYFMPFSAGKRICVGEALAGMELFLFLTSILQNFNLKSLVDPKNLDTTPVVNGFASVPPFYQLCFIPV
# In short: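 P450-Glo CYP2C9 system: proluciferin substrate with enzyme in mix containing 0.4% BSA, 10 min at room temperature, then NADPH regeneration solution added and incubated 1 h at 37C. Detection reagent stopped reaction; luminescence read after 20 min as RLU.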
# Potency is the fitted concentration of half-maximal effect; tags give direction and shape of the fitted curve.
structure (smiles),measurement,setting,value
CN1[C@@H]2CC[C@H]1CC(OC(=O)c1cc(Cl)cc(Cl)c1)C2 (stereo partly specified),Potency,[1],inactive
same,Potency,[2],"inconclusive: 10 µM [inhibitor, partial curve, poor fit] and inconclusive: 28.2 µM [inhibitor, single point]"
same,Potency,[3],"inconclusive: 35.5 µM [inhibitor, single point]"
C[C@@H]1[C@@H](C(=O)C[C@H]2O[C@@H]3O[C@]4(C)CC[C@@H]5[C@H](C)CC[C@@H]([C@H]2C)[C@@]35OO4)O[C@@H]2O[C@]3(C)CC[C@H]4[C@H](C)CC[C@@H]1[C@@]24OO3,Potency,[2],inactive
Oc1ccc2[nH]cc(CCCCN3CC=C(c4ccccc4)CC3)c2c1,Potency,[1],"inconclusive: 3.16 µM [inhibitor, full curve]"
same,Potency,[4],"inconclusive: 12.6 µM [cytotoxic, partial curve] and inconclusive: 15.8 µM [cytotoxic, partial curve]"
same,Potency,[2],"inconclusive: 11.2 µM [inhibitor, partial curve, poor fit] and inconclusive: 10 µM [inhibitor, partial curve, poor fit]"
same,Potency,[3],"inconclusive: 11.2 µM [inhibitor, partial curve, poor fit]"
same,Potency,[5],"inconclusive: 24.5 µM [inhibitor, single point]"
C[N+]1(CCC(C(N)=O)(c2ccccc2)c2ccccc2)CCCCC1,Potency,[2],"inconclusive: 31.6 µM [inhibitor, partial curve, poor fit]"
CC(O)(CS(=O)(=O)c1ccc(F)cc1)C(=O)Nc1ccc(C#N)c(C(F)(F)F)c1 (stereo unspecified),Potency,[2],"inconclusive: 12.6 µM [inhibitor, single point]"
